From the supplement of paper PMC12645437, “Orthogonal IMiD-Degron Pairs Induce Selective Protein Degradation in Cells” (ACS Chemical Biology, 2025)
The other results are listed elsewhere or left out.
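Further: jurkat cells carrying a lentiviral library of mutant zinc finger degrons fused to EGFP plus mCherry, mCherry+ cells FACS sorted, degron abundance counted by next-generation sequencing.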

What follows are sequences tested against no compound (DMSO) (assay: log2 fold change of degron read counts, EGFP-low vs EGFP+ sorted cells; higher = lower degron-EGFP level without compound (poor expression or instability)). Conditions: compound: DMSO control; 18 h.
FQCPICGAIFTQKGNLLRHIKL was tested, and the “log2 fold change of degron read counts” value was 0.185. FYCDVCGAQFTQKGNLLRHIKL was tested, and the “log2 fold change of degron read counts” value was -1.3. In the case of FECPQCGAFFTQKGNLLRHIKL, the “log2 fold change of degron read counts” value is reported as -0.793. FGCPQCGAYFTQKGNLLRHIKL was tested, and the “log2 fold change of degron read counts” value was 0.287. For LECEICGFQCTQKGNLLRHIKL, the “log2 fold change of degron read counts” value was -1.35. With FYCDICGAVFTQKGNLLRHIKL the “log2 fold change of degron read counts” value was -0.494. With FVCPVCGAHFTQKGNLLRHIKL the “log2 fold change of degron read counts” value was -0.096. For LLCPICGFNCTQKGNLLRHIKL, the “log2 fold change of degron read counts” value was 1.3. FCCEICGHTFTQKGNLLRHIKL was tested, and the “log2 fold change of degron read counts” value was -2.08. In the case of FSCPICGAYFTQKGNLLRHIKL, the “log2 fold change of degron read counts” value is reported as 0.728. With FECEICGRCFTQKGNLLRHIKL the “log2 fold change of degron read counts” value was -2.02. For FLCNQCGAWFTQKGNLLRHIKL, the “log2 fold change of degron read counts” value was 0.549. LGCPICGFDCTQKGNLLRHIKL was tested, and the “log2 fold change of degron read counts” value was 0.0768. For FLCDICGAMFTQKGNLLRHIKL, the “log2 fold change of degron read counts” value was -1.19. In the case of FRCPICGHAFTQKGNLLRHIKL, the “log2 fold change of degron read counts” value is reported as -0.476. With FVCPICGRAFTQKGNLLRHIKL the “log2 fold change of degron read counts” value was -0.423. For FQCPVCGAIFTQKGNLLRHIKL, the “log2 fold change of degron read counts” value was -0.393. In the case of FWCDVCGAVFTQKGNLLRHIKL, the “log2 fold change of degron read counts” value is reported as 0.0936. FDCNQCGRCFTQKGNLLRHIKL was tested, and the “log2 fold change of degron read counts” value was 0.128. For FFCPQCGAHFTQKGNLLRHIKL, the “log2 fold change of degron read counts” value was 0.35. With FICPICGRMFTQKGNLLRHIKL the “log2 fold change of degron read counts” value was 0.451. For FFCPQCGAVFTQKGNLLRHIKL, the “log2 fold change of degron read counts” value was 0.293. For FGCEICGHMFTQKGNLLRHIKL, the “log2 fold change of degron read counts” value was -0.162. FYCNQCGRIFTQKGNLLRHIKL was tested, and the “log2 fold change of degron read counts” value was 1.13. For FHCNVCGAPFTQKGNLLRHIKL, the “log2 fold change of degron read counts” value was -0.425. With FECDICGAGFTQKGNLLRHIKL the “log2 fold change of degron read counts” value was -2.46. FQCNQCGAKFTQKGNLLRHIKL was tested, and the “log2 fold change of degron read counts” value was -1.09. With FECDQCGAYFTQKGNLLRHIKL the “log2 fold change of degron read counts” value was -1.05. For LFCEICGFYCTQKGNLLRHIKL, the “log2 fold change of degron read counts” value was 1.46. With LICNQCGFNCTQKGNLLRHIKL the “log2 fold change of degron read counts” value was 0.48. For LRCNQCGFVCTQKGNLLRHIKL, the “log2 fold change of degron read counts” value was 0.937. With FLCPVCGAGFTQKGNLLRHIKL the “log2 fold change of degron read counts” value was -0.286. With LWCEICGFCCTQKGNLLRHIKL the “log2 fold change of degron read counts” value was 1.47. FCCEQCGAQFTQKGNLLRHIKL was tested, and the “log2 fold change of degron read counts” value was -1.75. FWCDICGANFTQKGNLLRHIKL was tested, and the “log2 fold change of degron read counts” value was -0.508. For LICEICGFECTQKGNLLRHIKL, the “log2 fold change of degron read counts” value was -1.55. In the case of FICNICGAKFTQKGNLLRHIKL, the “log2 fold change of degron read counts” value is reported as -1.12. With FGCPICGHAFTQKGNLLRHIKL the “log2 fold change of degron read counts” value was -0.592. In the case of FICNICGALFTQKGNLLRHIKL, the “log2 fold change of degron read counts” value is reported as 0.407. With FRCEICGHWFTQKGNLLRHIKL the “log2 fold change of degron read counts” value was -0.659. In the case of FRCNICGAMFTQKGNLLRHIKL, the “log2 fold change of degron read counts” value is reported as -0.644. With FVCNQCGRLFTQKGNLLRHIKL the “log2 fold change of degron read counts” value was 0.167. FICNVCGAWFTQKGNLLRHIKL was tested, and the “log2 fold change of degron read counts” value was 0.63. FACPICGHKFTQKGNLLRHIKL was tested, and the “log2 fold change of degron read counts” value was -0.696. FHCPVCGAHFTQKGNLLRHIKL was tested, and the “log2 fold change of degron read counts” value was 0.424. With FSCEQCGAWFTQKGNLLRHIKL the “log2 fold change of degron read counts” value was -1.04. For LNCPICGFHCTQKGNLLRHIKL, the “log2 fold change of degron read counts” value was 0.691. For FHCEVCGAAFTQKGNLLRHIKL, the “log2 fold change of degron read counts” value was -1.72. FACSVCGHEFTQKGNLLRHIKL was tested, and the “log2 fold change of degron read counts” value was -1.3. For LTCNQCGFFCTQKGNLLRHIKL, the “log2 fold change of degron read counts” value was 1.3.
